Among the data in PubChem BioAssay (NCI) are TGI and GI50 values, retold here.

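Test compounds were applied to cells in 96-well plates for 48 hours at 5 doses. Here, GI50 denotes the concentration required for 50% inhibition of growth. TGI: concentration producing complete growth inhibition.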 Where only a bound is given, the exact number is not on record here.

The test system of this test is NCI-H322M lung. The experiment in a line: NCI tumour cell line growth inhibition, 48 h.

Regarding `CCOC(=O)c1nc2ccc(C(F)(F)F)cc2nc1Nc1cc(OC)c(OC)c(OC)c1`, the TGI is above 100 µM. The compound `COc1cc2c(c(OC)c1OC)-c1ccc(SC)c(=O)cc1C(CC(=O)Oc1cccc([N+](=O)[O-])c1)C2` (stereo unspecified) returned a TGI above 57.4 µM. Compound `COc1ccc(C2=NN(c3ccccc3)C[N+](c3ccc(C)cc3)=N2)cc1` registered a TGI above 100 µM. For `COc1ccc(C#Cc2ccc(=O)oc2-c2cc(OC)c(OC)c(OC)c2)cc1O`, the GI50 was 25.8 µM and the TGI is above 100 µM. Taken in the same sequence, the figures for `COc1ccc2c3c(Nc4cccc(/C(C)=N\O)c4)[nH]c4ccccc4c-3c(N=O)c2c1` were 25 µM and 70.3 µM. In the case of `C=CCNC(=S)N1CC(C)C(=O)Nc2cc(Cl)ccc21` (stereo unspecified), the TGI is above 100 µM. Same read-out and setting: the result for `COC(=O)C1CCN(C(=O)OC(C)(C)C)CC1` reads above 100 µM; that for `O=C1C=CC2OC(c3ccccc3)C(O)C2O1` (stereo unspecified), 18.4 µM.

With `O=C(Nc1ccc(Cl)cc1C(F)(F)F)C(=O)C1CCCS1(=O)=O` (stereo unspecified), the TGI is above 100 µM. `CCCCn1c(CSc2ccc(Cl)cc2)c(C(=O)OCC)c2cc(OC)c(Br)cc21`: the TGI is above 100 µM. For `O=P1(c2ccccc2)c2ccccc2-c2ccccc21`, the TGI is above 100 µM. `N#Cc1ccc(Cc2ccccn2)cc1Cl` returned a TGI above 100 µM. `O=C1CSC(=S)N1c1ccco1` gave a TGI above 100 µM. Consider `CCOC(=O)NN(C(=O)OCC)C(C(=O)C1=CCCCC1)N(NC(=O)OCC)C(=O)OCC`, for which the TGI is above 100 µM.

Consider `COC(=O)c1ccccc1N(C(=O)c1ccccc1)c1ccccc1C`, for which the TGI is above 100 µM. Same read-out and setting: the figure for `c1ccc(-c2nc3ccccc3nc2SCc2cccnc2)cc1` is above 100 µM. For the compound `CCN(CC)CCCC(C)Nc1ccnc2cc(Cl)ccc12` (stereo unspecified), the GI50 was 39.9 µM and the TGI is above 100 µM. Consider `CCCCCCCCCCCCCCCC1=NCCN1`, for which the GI50 is 2.38 µM and the TGI worked out at 7.04 µM.

For the compound `Cc1c(-c2ccc(C3CCCCC3)cc2)nc2ccc(F)cc2c1C(=O)O`, the GI50 was 12.6 µM and the TGI is above 100 µM. `O=C1c2ccccc2C(=O)N1CCSCC(CO)SCCN1C(=O)c2ccccc2C1=O` (stereo unspecified) yielded a TGI above 100 µM. Compound `CNC(=O)NCNC(=O)NC` gave a TGI above 100 µM.

On to `CSc1nc(C)cc(Nc2ccc(O)c(CN3CCOCC3)c2)n1`, for which the TGI is above 100 µM. The same measure, in the same setting: the result for `S=C1NC2=C(COc3ccccc32)C(c2ccc(Cl)cc2)N1` (stereo unspecified) reads 30.3 µM; that for `CN(CC(=O)O)c1ncc2c(n1)C=CCC2`, above 100 µM.

On to `O=C(CCl)NCCNc1nccc(Nc2ccc(S(=O)(=O)Nc3ccccn3)cc2)n1`, for which the GI50 was 2.92 µM and the TGI came out at 12.9 µM. For `S=C(NCCc1ccccn1)N/N=C/c1ccccn1`, the TGI was above 100 µM. With `O=c1oc2ccc(I)cc2c(=O)n1-c1ccc(F)cc1F`, the GI50 is 2.76 µM and the TGI amounted to 17.3 µM.

`CC(=O)O[C@H]([C@H](OC(C)=O)[C@H](C)OC(C)=O)[C@@H](/C=C/[C@@H]1CC=CC(=O)O1)OC(C)=O`: the GI50 is above 100 µM and the TGI was above 100 µM.

Turning to `CC(C)N1CCN(c2ccncc2S(=O)(=O)N2CCCCC2)CC1`, the TGI was above 100 µM. For the compound `CCN1CCC(Nc2ccnc3cc(Cl)ccc23)CC1`, the GI50 was 20.8 µM and the TGI was above 100 µM. Regarding `O=C/C1=C/C2=Cc3ccccc3C=C(/C=C(/C=O)C1)C2`, the TGI was above 100 µM.

`CC(CC(=O)N1C(=O)C(C)(C)[C@@H](O)[C@H]1CC(C)C(Cl)(Cl)Cl)C(Cl)(Cl)Cl` (stereo partly specified) gave a TGI above 100 µM. On the same count and under the same terms, the result for `CCOC(=O)C(=O)Nc1nc2c(OCC)cccc2s1` reads above 100 µM; that for `CCOC(=O)Cn1c2ccccc2c(=O)c2cc(C)c(C)c(C#N)c21`, above 100 µM; that for `O=C1CSC(c2c[nH]c3ccccc23)N1c1ccc(Cl)cc1` (stereo unspecified), above 100 µM. `O=C(O)[C@H](Cc1c[nH]c2ccccc12)N1C(=O)c2ccccc2C1=O` showed a TGI above 100 µM. For `O=S(=O)([O-])c1ccc(N=Cc2ccccc2[O-])cc1.O=S(=O)([O-])c1ccc(N=Cc2ccccc2[O-])cc1.[Co+2]`, the GI50 was above 100 µM and the TGI was above 100 µM. `CCNC(=O)c1cc(Cl)ccc1NC(=O)C12CC3CC(CC(C3)C1)C2` showed a TGI of 89.7 µM.

As for `CC1CCN(Cc2ccc(NC(=O)c3cc4ccc5cccnc5c4[nH]3)cc2)CC1`, the GI50 was 7.15 µM and the TGI was 21.8 µM.

The compound `COc1cc(C2c3cc4c(cc3[C@@H](Nc3cccc(CO)c3)C3COC(=O)[C@H]23)OCO4)cc(OC)c1O` (stereo partly specified) gave a TGI of 52 µM. `CCCCC(CCCCCC(CCCC)NCc1ccc2c(c1)OCO2)NCc1ccc2c(c1)OCO2` (stereo unspecified): the GI50 is 0.712 µM and the TGI turned out to be 1.84 µM. In the case of `O=c1c2ccccc2[nH]n1Cc1ccccc1`, the TGI was above 100 µM. `C=C(CO)CC(O)c1cc(OC)ccc1OC` (stereo unspecified) showed a TGI above 100 µM.

`COc1cc2c(c(OC)c1OC)C(=O)[C@@H]1[C@H]2N1C(=O)NCCCl` came in with a TGI above 100 µM. Still for that read-out and setting: the figure for `NC(N)=NS(=O)(=O)c1ccc(N/N=C2/CCOC2=O)cc1` is above 100 µM. On to `CCCCOC(=O)c1ccc(N)cc1`, for which the GI50 is above 100 µM and the TGI is above 100 µM.

`CO[C@@H]1C=C[C@@]23c4cc5c(cc4CN(C[C@@H]2O)[C@H]3C1)OCO5`: the TGI was above 100 µM.

`CC(=O)/C(=C/c1ccccc1)C(=O)CC(C)C`: the GI50 was 18.9 µM and the TGI was determined as 34.3 µM. With `COc1cc2c(c(OC)c1OC)-c1ccc(O)cc1[C@@H](NC(C)=O)CC2`, the GI50 is 0.0683 µM and the TGI was above 100 µM. `CC(C)C(=O)N1Cc2cc(Cl)cc(Cl)c2OC(=O)c2ccccc21` came in with a TGI above 100 µM. Consider `C=C(CN1CCN(c2ccc(C(F)(F)F)cc2)CC1)c1ccc(C(=O)Nc2ccccc2N)cc1`, for which the GI50 is above 40.4 µM and the TGI was above 100 µM.

`N#CC12CCC1C1CCCCC12N1CCSCC1` (stereo unspecified): the TGI is above 100 µM.

Consider `O=C1C(Cl)=C(Nc2ccc(Nc3ccccc3)c(NC3=C(Cl)C(=O)c4ccccc4C3=O)c2)C(=O)c2ccccc21`, for which the GI50 is 3.07 µM and the TGI came to 21.4 µM. With `CC1=C2CC(C)(C)/C=C\C(=O)/C(C)=C\C3=C[C@H](C)C[C@]3(O2)C1=O`, the TGI came out at 12.1 µM.

As to `CSC(=NC#N)S/C=C/C(=O)c1ccccc1`, the GI50 is above 100 µM and the TGI was above 100 µM. Consider `O=C1/C(=C/c2ccccc2)CN(C(=O)C(Cl)Cl)C/C1=C\c1ccccc1`, for which the GI50 is 1.45 µM and the TGI turned out to be 2.84 µM. On to `CC(C)C12Cc3c(ccc4ccccc34)OC1(C)Oc1ccc3ccccc3c1C2` (stereo unspecified), for which the TGI was above 100 µM. With `COC(=O)C1CCC(=S)N1C(=O)OCc1ccccc1` (stereo unspecified), the TGI is above 100 µM.

`CCOC(=O)CC(c1ccccc1)C(C)(C(=O)OCC)C(=O)OCC` (stereo unspecified) returned a TGI above 100 µM. The same measure, in the same setting: the figure for `COc1cc(CSc2ccc(O)cc2)cc(OC)c1OC` is above 100 µM. In the case of `N#Cc1c(NCc2ccccc2)nc(NCc2ccccc2)c(C#N)c1-c1ccc(O)cc1`, the GI50 is 32.3 µM and the TGI is above 100 µM. `CC(=O)OCC1OC(n2ccc(=O)[nH]c2=O)C(OC(C)=O)C(OC(C)=O)C1OC(C)=O` (stereo unspecified): the TGI was above 100 µM. Regarding `O=C1/C=C/[C@@H](O)[C@@H]2C[C@@H](O)C[C@H]2/C=C/CCC[C@H](CCc2cccc3ccccc23)O1`, the GI50 is 0.0569 µM and the TGI came to 13.4 µM. As to `CCOC(=O)CC1COc2ccc3c(c21)OCO3` (stereo unspecified), the TGI was above 100 µM. The compound `C=C1CC2(CC(c3ccccc3Cl)OC(c3ccccc3Cl)C2)OC1=O` (stereo unspecified) came in with a TGI of 19.9 µM. Take `COc1ccc(/C=C/C(=O)/C=C/c2ccc(OC)cc2OC)c(OC)c1`: the TGI was above 100 µM.

Turning to `COc1ccc(C=Nc2c(C(=O)Nc3cccc(Cl)c3C)sc3nc(C)c(C(=O)/C=C/c4ccc(OC)cc4)cc23)cc1`, the GI50 was 4.15 µM and the TGI was above 50 µM. For `Cc1nc2c(c(N3CCCc4ccccc43)n1)CCC2` the same measures were 0.0104 µM and above 100 µM. In turn, `CCOC(=O)c1cc(-n2nnc3ccccc32)cn1C` gave a TGI above 10 µM. On to `CSCC[C@@H]1C(=O)N(C)[C@H](C(C)(C)C)N1C(=O)c1ccccc1`, for which the TGI is above 100 µM. Same read-out and setting: the result for `O=C(/C=C/c1ccc(Cl)cc1)c1ccccc(=O)c1O` reads 15.7 µM; that for `O=C(O)/C(Cl)=C(\Cl)C(=O)c1ccccc1`, above 100 µM.

Turning to `COc1cc(C)c(/C=C2/N=C(c3ccccc3)OC2=O)c([N+](=O)[O-])c1OC`, the TGI is above 100 µM. Take `Oc1ccc(Nc2ccc3ccccc3c2)cc1`: the GI50 is 6.6 µM and the TGI is 29.4 µM. For `Nc1c(C(=O)Nc2ccccc2)sc2nc3c(cc12)CCCCC3` the same measures were 0.907 µM and above 100 µM. `NC(=NCc1ccccc1)C(N=Nc1ccccc1)C(=O)NCc1ccccc1` (stereo unspecified): the GI50 was 7.97 µM and the TGI is 32.5 µM. `C[C@H]1/C(=C/C(=O)OCCN(C)C)CC[C@H]2[C@H]1C(=O)C[C@H]1C(C)(C)[C@@H](O)CC[C@]21C` had a TGI above 100 µM. Consider `CCCCN1CCCC[C@@H]1C(=O)N[C@H](C(=O)N(C)[C@H](C[C@@H](OC(C)=O)c1nc(C(=O)NC2CCC(C(=O)OC)CC2)cs1)C(C)C)C(C)C` (stereo partly specified), for which the GI50 was 1.69 µM and the TGI was above 25 µM. Compound `CC(Oc1ccccc1Cl)C(=O)NN1C(=O)CC(=O)N(c2ccccc2)C1=S` (stereo unspecified) had a TGI above 100 µM.

Compound `COc1cc2c(cc1OC)C1C(=O)c3c(O)cc4c(c3OC1CO2)C=CC(C)(C)O4` (stereo unspecified) yielded a TGI above 100 µM. `O=C(CN(C(=O)OC12CC3CC(CC(C3)C1)C2)C(=O)OC12CC3CC(CC(C3)C1)C2)Oc1ccc([N+](=O)[O-])cc1` returned a TGI above 100 µM. In the case of `N.N.N.N.N.NC(=O)[O-].[Co+3].[I-]`, the GI50 was above 100 µM and the TGI is above 100 µM.

Take `CN1CN(C2OC(CO)C(O)C2O)c2nc(N)[nH]c(=O)c21` (stereo unspecified): the TGI is above 100 µM. Take `CCCc1n(Cc2ccc3ccccc3c2)cc[n+]1Cc1ccc2ccccc2c1`: the GI50 was 1.96 µM and the TGI was found to be 6 µM. On to `O=c1c2ccc(S(=O)(=O)c3ccc4c(=O)n5c6ccccc6nc5c5cccc3c45)c3cccc(c32)c2nc3ccccc3n12`, for which the TGI is above 100 µM.

Regarding `NCCc1ccc(S(=O)(=O)F)cc1`, the GI50 is above 100 µM and the TGI is above 100 µM.
